Legend:
Experiment in all cases: ITC; VP-ITC, 25 °C; UBA5 peptides (~400 µM) titrated into 20–25 µM binding partner; 25 mM HEPES pH 7.5, 100 mM NaCl; one-site model; a single profile for each interaction
Settings in all cases: both partners purified
[1] = target: T1, GABARAPL2, residues 3–116 (UniProt P60520)
T1 construct: N-terminal cloning artefact left after TEV cleavage (vector pET39_Ub19); source: E. coli T7 Express, purified (His Trap IMAC, TEV cleavage, reverse IMAC, Superdex gel filtration); not shown: modified ubiquitin tag (Ub19), N-terminal, cleaved
T1 sequence (P60520 other isoform, or with tags, fused parts or gaps): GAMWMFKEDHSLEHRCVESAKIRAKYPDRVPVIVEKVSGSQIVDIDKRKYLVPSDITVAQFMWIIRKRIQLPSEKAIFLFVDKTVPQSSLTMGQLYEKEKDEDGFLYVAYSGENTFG

LC3B, residues 5–120 = LC3B, residues 5–120 (UniProt Q9GZQ8)
[2] = target: T2, Full length UFM1, residues 2–83 (UniProt P61960)
T2 construct: N-terminal cloning artefact left after TEV cleavage (vector pET39_Ub19); UFM1 (ubiquitin fold modifier 1), residues 2–83 (processed form ending at Gly83); also called Ubiquitin fold modifier 1; source: E. coli T7 Express, purified (His Trap IMAC, TEV cleavage, reverse IMAC, Superdex gel filtration); not shown: modified ubiquitin tag (Ub19), N-terminal, cleaved
T2 sequence (P61960 other isoform, or with tags, fused parts or gaps): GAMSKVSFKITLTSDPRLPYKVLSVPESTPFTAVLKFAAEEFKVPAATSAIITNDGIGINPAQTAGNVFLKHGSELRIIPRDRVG

B1: UBA5 C-terminal part with A371E mutant ([…]) (domain or fragment)
chain: not shown
notes: N-terminal cloning artefact left after TEV cleavage (vector pET39_Ub19); source: E. coli T7 Express, purified (His Trap IMAC, TEV cleavage, reverse IMAC, Superdex gel filtration); not shown: modified ubiquitin tag (Ub19), N-terminal, cleaved
B1 was tested, and the Ka [1] was 1.96e+07 M⁻¹, the Kd [1] was 60 nM and the dH [1] was -7.79 kcal/mol. The “stoichiometry N” value [1] was 1.01, the Ka (LC3B, residues 5–120) was 1.66e+06 M⁻¹ and the Kd (LC3B, residues 5–120) was 600 nM. For the same binder, the dH (LC3B, residues 5–120) was -3.93 kcal/mol, the “stoichiometry N” value (LC3B, residues 5–120) was 0.944 and the Ka [2] was 110000 M⁻¹. For the same binder, the Kd [2] was 9200 nM, the dH [2] was -11.4 kcal/mol and the “stoichiometry N” value [2] was 1.01.

— article PMC8304084, “A Concerted Action of UBA5 C-Terminal Unstructured Regions Is Important for Transfer of Activated UFM1 to UFC1” (International Journal of Molecular Sciences, 2021)
